We go through 167 variants from the RNAGym collection of RNA variant scans (doi:10.1101/gad.245936.114).

B1: tRNA (parent)
chain: CUCUCGGUAGCCAAGUUGGUUUAAGGCGCAAGACUUUAAUUUAUCACUACGAAAUCUUGAGAUCGGGCGUUCGACUCGCCCCCGGGAGAUUUUUUCCUCGAGCAA

Variants at the background level are over-represented here. Some results are limits rather than exact numbers.

The variants in this series derive from B1. Briefly: nonsense suppression (GFP-seq) (ratio to wild type); higher = more function; SUP4oc tRNA, yeast GFP reporter sort-seq. A digest of the protocol:
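Nonsense suppression (GFPSEQ) is the median GFP/RFP ratio of each sorting bin, weighted by the variant's estimated share of cells in that bin and expressed relative to the unmutated parent tRNA. Yeast strains carried genome-integrated variants of an ochre-suppressor tRNA from a library with ~3% random mutations, plus a galactose-driven GFP ochre reporter and RFP, and were grown in raffinose/galactose medium containing 80 mg/L adenine. Cells were sorted into GFP/RFP bins, each bin was Illumina-sequenced (phred ≥30), and variants were kept only with ≥100 reads and ≥30 cells.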
As for A13U G66U C68A G73C, the nonsense suppression is at most 0.026.
With A54C A60U the figure was 1.09.
The same measure for C3A C83U: at most 0.026; for U71G G73A: at most 0.026.
The same measure for C5U C83A: at most 0.026.
A30C U35G G69A C81G C82U: the nonsense suppression was at most 0.026.
With G19U U63G G65C G67C C68A C79G, the nonsense suppression is at most 0.026.
With C27U C79A the figure was at most 0.026; with G59A U76A G88U, at most 0.026.
With A31G G66C C79A the figure was at most 0.026.
The same measure for A24U A60C G67A: at most 0.026.
With U2A G73C, the nonsense suppression is at most 0.026.
Take C3A A31G U76C G78U G86U: the nonsense suppression is at most 0.026.
Consider A24U G67A G78U, for which the nonsense suppression is at most 0.026.
For the variant G7U A24C G69A C72U, the nonsense suppression was at most 0.026.
For the variant G6U A33G G85U, the nonsense suppression was at most 0.026.
The same measure for G19U A54G G61C: at most 0.026.
With U16G G32C C75A the figure was at most 0.026.
The same measure for G26U G28A: at most 0.026; for A13U A23G G59C C77A: at most 0.026; for G19A: at most 0.026.
Regarding A14U U55A, the nonsense suppression is at most 0.026.
The same measure for U20G U70A: at most 0.026; for A30U G78U A89C: at most 0.026; for G15U U35G: at most 0.026.
Regarding U2G C11U C56A, the nonsense suppression is at most 0.026.
The same measure for U58A G61A U71A: at most 0.026; for C1U G10U C11A G15A: at most 0.026.
The same measure for C5A G7U C72G: at most 0.026; for C3A C34G A54C U58G U63A: at most 0.026.
With C1G C34G G65A A89U the figure was at most 0.026; with C27U U35A, at most 0.026.
In the case of U8A A89U, the nonsense suppression is at most 0.026.
With C29G U63C U71G the figure was at most 0.026; with U35A G59A, at most 0.026.
The same measure for G32C C34A U35C A60G: at most 0.026.
The same measure for A9C U57C G78C: at most 0.026.
As for U8G C29U C64G G69A C82G, the nonsense suppression is at most 0.026.
Turning to C34U G65A, the nonsense suppression is at most 0.026.
With U58G U71A G73A C82G the figure was at most 0.026; with G15C A23G G61A, at most 0.026; with A9U A13C U17A U35A C79A, at most 0.026.
Consider C12U C27A G88C, for which the nonsense suppression was at most 0.026.
Consider U17C U55G G67C, for which the nonsense suppression is at most 0.026.
For the variant G25U U57G G66C G88U, the nonsense suppression was at most 0.026.
In the case of C5U A33G A54G A87C, the nonsense suppression was at most 0.026.
In the case of G10A G18C A30U, the nonsense suppression is at most 0.026.
The same measure for G15C G25U G61U: at most 0.026; for G65A A74C C81A: at most 0.026.
As for U21G U35A G69C U76G, the nonsense suppression is at most 0.026.
With G15A G61A the figure was at most 0.026; with C3U U17C G73A, at most 0.026.
As to U17G C27A A33C U57G U71A G86A, the nonsense suppression is at most 0.026.
With C11G C27A U55C A60C the figure was at most 0.026; with C12A U63A C77G, at most 0.026.
In the case of U22A C34U C72G, the nonsense suppression was at most 0.026.
With A9U U63G U76A the figure was at most 0.026.
The same measure for C1G U21A A33G: at most 0.026; for G26C C77U: at most 0.026; for A23G G84C: at most 0.026.
The same measure for U2C C34U: at most 0.026; for A13G G32C A33C G59A A62C U76A G84U: at most 0.026; for C3A A62C G65U: at most 0.026.
For the variant C82U G86C, the nonsense suppression was at most 0.026.
With U21G C72G the figure was at most 0.026; with A14G A60G, 0.0456; with U8A U58C A74G, at most 0.026.
With U2G U35A the figure was at most 0.026; with G32A A33G, at most 0.026; with A31C U63C, at most 0.026.
With C5G G25U A30G the figure was at most 0.026.
Take G7C U16A U58C A60C C64A: the nonsense suppression was at most 0.026.
The same measure for A14G U22C: at most 0.026; for C83G G85A: at most 0.026.
The same measure for G6U G32A C34G G61U U63A: at most 0.026; for G67C C79G: 1.03; for C64U G65C: at most 0.026.
With U70A A89C the figure was at most 0.026; with U4C U35A U55A G88A, at most 0.026; with A9G C29U A30G U76A, at most 0.026.
G6U G7U U22G: the nonsense suppression was at most 0.026.
With C29A G78C C81G G85A the figure was at most 0.026; with A9U G59U, at most 0.026.
With G67A G86A the figure was at most 0.026; with U16C U17C A23G C29U U55A G88C, at most 0.026; with U21A C83G G84C, at most 0.026.
On to G6A U17C G59U C82A, for which the nonsense suppression is at most 0.026.
With G7C G18A G65C G86A the figure was at most 0.026; with A24G G78A A87C, at most 0.026.
On to G6U G7A U8A G85A, for which the nonsense suppression is at most 0.026.
As to U8G G25C G32A U76G, the nonsense suppression is at most 0.026.
With A14G A62G C75G the figure was at most 0.026.
The same measure for C12A U70A A74U C83A: at most 0.026; for G6U A9U C12A G86C: at most 0.026; for C1U U2C U20G: at most 0.026.
Consider C11U A23C G25A C80U, for which the nonsense suppression was at most 0.026.
The same measure for A14G G25A A30C G86C: at most 0.026.
The same measure for A30G C77A C80G: at most 0.026; for G10C C75U C83G G88C: at most 0.026.
The same measure for G26A A87C: at most 0.026; for G19C U20A A31C U57G U71A A89G: at most 0.026.
As for U4A G25C G69C, the nonsense suppression is at most 0.026.
With A24C U35G the figure was at most 0.026; with C3U G25U A33C C72G A87C G88U, at most 0.026.
For G26A G61C C68A C83U, the nonsense suppression was at most 0.026.
The same measure for U35A C56G: at most 0.026; for U55G U70A: at most 0.026.
The same measure for G18C G19A A24U: at most 0.026; for C29A G73U C81A: at most 0.026; for U55C C83G: 0.0314.
With G10U G19A, the nonsense suppression was at most 0.026.
The same measure for C3U C5U C75G: at most 0.026; for G7C U20G C68A: at most 0.026.
The same measure for U2A G28C G66C: at most 0.026; for G6A U55A: at most 0.026; for C27G: at most 0.026.
With U8A C11U A33C the figure was at most 0.026.
For the variant A23U C56A U63G, the nonsense suppression is at most 0.026.
With G32A A60C U70G C83U the figure was at most 0.026.
Consider U2A G26C G32U G73C, for which the nonsense suppression was at most 0.026.
The same measure for U16C A23G G28U G85U: at most 0.026; for U20C A23C G84A: at most 0.026; for C3U C72U A74C C77A: at most 0.026.
With A62G A74U, the nonsense suppression is at most 0.026.
The same measure for C11U U55G: at most 0.026; for C12G U17G C83A A87U: at most 0.026; for G26C A31G U76C: at most 0.026.
With G19C A33C A60C G67A G88A the figure was at most 0.026; with C1U C11G U55G, at most 0.026; with C34U A74C, at most 0.026.
The same measure for U55G C72G: at most 0.026; for G61C G84U: 0.199; for U2G G32A: at most 0.026.
Regarding G18A U22C U71C, the nonsense suppression is at most 0.026.
With G10C G15U A23U the figure was at most 0.026.
With G7U U8C A23U C82G A87G the figure was at most 0.026; with U70C G88A, at most 0.026; with G28A G69C C80A, at most 0.026.
The same measure for G19A A60U: at most 0.026; for U21G C27U U63G: at most 0.026.
Consider U57G U70C, for which the nonsense suppression is at most 0.026.
With C27G A62G U63C the figure was at most 0.026; with A74G G78C, 0.0343.
The same measure for U2C U17G A33G: at most 0.026; for G6U G10U A33G: at most 0.026; for G10A G61A C81G A89G: at most 0.026.
The same measure for G6C A13C: at most 0.026; for G25C G32A A54G G85U: at most 0.026.
Regarding G7C G19U U20A U58G A89G, the nonsense suppression is at most 0.026.
In the case of C1A U57G, the nonsense suppression was at most 0.026.
The same measure for C12A G32A U76C C80G: at most 0.026; for A13U G61C: 0.191; for C3G A62U A74U: at most 0.026.
The same measure for A9C C12A A14U A31G G32A C68U: at most 0.026; for U8G U58A G65C: at most 0.026.
With U58G G61A C83A the figure was at most 0.026; with C27U A31C U55A, at most 0.026.
For the variant A54G U63A, the nonsense suppression is at most 0.026.
The same measure for U21C C29U G61U: 0.518; for C3A G86A: at most 0.026; for A24C G25U: at most 0.026.
The same measure for C5G A33U U35G: at most 0.026; for C34A G65U: at most 0.026; for A14C A24U G66U: at most 0.026.
With A14C G25C C34G U58G A62U G78C the figure was at most 0.026; with G25C C56A A62C G73C, at most 0.026; with G65C A74G, at most 0.026.
